Results: PubChem BioAssay AID360 (National Center for Advancing Translational Sciences (NCATS), 2006)
Hit rate of the full screen: of about 48,000 compounds, about 550 (1.1%) were called active. Not shown: some 4% with an inconclusive outcome. Cut-off read from the data, not from the text of the source: active = potency below about 15 µM; inconclusive = mostly about 16 µM to 33 µM; inactive = weaker than that. This is one part of the list.

These compounds were tested against Lysosomal acid glucosylceramidase (Homo sapiens) (UniProt P04062) (assay: Glucocerebrosidase). Details: purified enzyme, resorufin glucoside fluorescence (screen aimed at inhibitors), 20 min.
Procedure, shortened: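 Wild-type enzyme at 0.2 nM final in 50mM citric acid/KH2PO4, 10mM sodium taurocholate, 0.01% tween-20, pH 5.9, with resorufin beta-D-glucopyranoside at 30 uM final. Compounds titrated, 20 min at RT, red fluorescence read; AC50 from titration.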
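Note: the screen sought inhibitors.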
Potency is the fitted concentration of half-maximal effect.

UniProt P04062, sequence (P04062 whole entry, looked up): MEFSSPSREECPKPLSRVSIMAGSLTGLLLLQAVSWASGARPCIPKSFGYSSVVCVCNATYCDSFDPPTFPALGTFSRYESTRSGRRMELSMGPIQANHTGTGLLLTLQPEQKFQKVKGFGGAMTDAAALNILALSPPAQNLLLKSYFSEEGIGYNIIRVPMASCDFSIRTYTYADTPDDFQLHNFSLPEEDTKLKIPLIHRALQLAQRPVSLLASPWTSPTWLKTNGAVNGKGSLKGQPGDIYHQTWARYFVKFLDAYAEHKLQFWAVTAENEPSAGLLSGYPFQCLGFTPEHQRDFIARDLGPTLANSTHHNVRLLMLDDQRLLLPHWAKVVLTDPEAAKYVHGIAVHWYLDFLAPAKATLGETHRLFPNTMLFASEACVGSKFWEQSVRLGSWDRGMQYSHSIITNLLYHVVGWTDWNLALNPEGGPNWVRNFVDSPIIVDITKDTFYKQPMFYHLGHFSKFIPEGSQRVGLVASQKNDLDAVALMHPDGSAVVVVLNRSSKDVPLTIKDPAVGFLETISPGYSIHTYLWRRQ

Potency, inactive:
O=S(=O)(Cc1ccccc1Cl)N1CCCCC1 > 76.9 µM
Cc1ccc(NS(=O)(=O)c2ccc(NC(=O)C3CCCO3)cc2)cc1 (stereo unspecified) > 76.9 µM
Cc1cccn2c(=O)c3cc(C(=O)N4CCN(C(=O)c5ccco5)CC4)n(C)c3nc12 > 76.9 µM
CCOC(=O)c1c(N)sc(C(=O)Nc2ccc3c(c2)OCO3)c1C > 76.9 µM
O=C(c1cccnc1)N1CCN(C(=O)c2cccs2)CC1 > 76.9 µM
Cc1cccc2cc(CN(Cc3ccccc3)C(=O)N(C)C)c(=O)[nH]c12 > 76.9 µM
CC(C)N(CCO)C(=O)C(c1ccccc1)c1ccccc1 > 76.9 µM
c1ccc(CNn2nnnc2-c2ccccc2)cc1 > 76.9 µM
CCN(CC)S(=O)(=O)c1ccccc1/C=N\O > 76.9 µM
CCN(CC)C(=O)c1cncc(C(=O)N(CC)CC)c1-c1ccccc1 > 76.9 µM
Cc1cccc(C)c1NC(=O)CCCSc1nnnn1C > 76.9 µM
O=C(OCC(=O)N1CCN(C(=O)COC(=O)c2ccncc2)CC1)c1ccncc1 > 76.9 µM
CCOc1ccc(OCC)c(NC(=O)CN2CCN(C(=O)c3ccco3)CC2)c1 > 76.9 µM
Cc1cc2oc(=O)c3c(c2cc1OC(=O)c1ccco1)CCCC3 > 76.9 µM
CCOC(=O)c1c(N)sc(C(=O)N2CCOCC2)c1C > 76.9 µM
Cc1noc(C)c1C(=O)OCC(=O)/C=C1\N(C)c2ccccc2C1(C)C > 76.9 µM
CC1(C)CC(=O)C2=C(C1)Nc1ncnn1C2c1ccccn1 (stereo unspecified) > 76.9 µM
O=C(CSCCO)Nc1cc(C(F)(F)F)ccc1Cl > 76.9 µM
CCOC(=O)CN1C(=O)SC(CC(=O)Nc2nccs2)C1=O (stereo unspecified) > 76.9 µM
C=CCNS(=O)(=O)c1ccc(OC)c(C)c1 > 76.9 µM
Cc1ccc(-c2cc(C(=O)NCc3ccc4c(c3)OCO4)no2)cc1 > 76.9 µM
CCOC(=O)c1sc(NC(=O)CSc2ncccn2)c(C#N)c1C > 76.9 µM
Clc1cc2c(c(Cn3cnc4ccccc43)c1)OCOC2 > 76.9 µM
CCN(CC)S(=O)(=O)c1ccc2c(c1)c(=O)c(C(=O)N1CCN(c3ccccc3)CC1)cn2C > 76.9 µM
CC(C)(C)C(=O)NC1CCN(S(=O)(=O)c2ccccc2F)CC1 > 76.9 µM
CNS(=O)(=O)c1cccc(C(=O)NCC(c2cccs2)N(C)C)c1 (stereo unspecified) > 76.9 µM
